In the supplement of paper PMC8728848:
Some of the results follow.

Experiments:
Assay in all cases: glycan array binding signal (z-score within array); higher = stronger binding
Details in all cases: glycan notation: IUPAC condensed, linker removed
[1] = molecular target: GlcNAc(b1-3)Gal(b1-4)GlcNAc(b1-3)Gal(b1-4)GlcNAc(b1-3)Gal(b1-4)GlcNAc(b1-3)Gal(b1-4)GlcNAc(b1-2)[GlcNAc(b1-3)Gal(b1-4)GlcNAc(b1-3)Gal(b1-4)GlcNAc(b1-3)Gal(b1-4)GlcNAc(b1-3)Gal(b1-4)GlcNAc(b1-6)]Man(a1-6)[GlcNAc(b1-3)Gal(b1-4)GlcNAc(b1-3)Gal(b1-4)GlcNAc(b1-3)Gal(b1-4)GlcNAc(b1-3)Gal(b1-4)GlcNAc(b1-2)Man(a1-3)]Man(b1-4)GlcNAc(b1-4)[Fuc(a1-6)]GlcNAc
Method in brief: (§1)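 The binding signal is a Z-score computed within each array and averaged over linkers. Arrays of the same protein sequence at different concentrations or buffers were also averaged together. Data originate from 3228 arrays in the Consortium for Functional Glycomics database, kept only where the protein sequence was available.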

[2] = molecular target: GlcNAc(b1-3)Gal(b1-4)GlcNAc(b1-3)Gal(b1-4)GlcNAc(b1-3)GalNAc
Method in brief: as §1

[3] = molecular target: GlcNAc(b1-3)Gal(b1-4)GlcNAc(b1-3)GalNAc
Method in brief: as §1

[4] = molecular target: GlcNAc(b1-3)Gal(b1-4)GlcNAc(b1-3)[GlcNAc(b1-3)Gal(b1-4)GlcNAc(b1-3)]GalNAc
Method in brief: as §1

[5] = molecular target: GlcNAc(b1-3)Gal(b1-4)GlcNAc(b1-6)[Gal(b1-3)]GalNAc
Method in brief: as §1

[6] = molecular target: GlcNAc(b1-3)Gal(b1-4)GlcNAc(b1-6)[GlcNAc(b1-3)Gal(b1-3)]GalNAc
Method in brief: as §1

[7] = molecular target: GlcNAc(b1-3)Gal(b1-4)GlcNAc(b1-6)[GlcNAc(b1-3)]Gal(b1-4)GlcNAc
Method in brief: as §1

[8] = molecular target: GlcNAc(b1-3)GalNAc
Method in brief: as §1

[9] = molecular target: GlcNAc(b1-3)Man
Method in brief: as §1

[10] = molecular target: GlcNAc(b1-3)[GlcNAc(b1-4)][GlcNAc(b1-6)]GlcNAc
Method in brief: as §1

[11] = molecular target: GlcNAc(b1-3)[GlcNAc(b1-6)]Gal(b1-4)GlcNAc
Method in brief: as §1

[12] = molecular target: GlcNAc(b1-3)[GlcNAc(b1-6)]GalNAc
Method in brief: as §1

[13] = molecular target: GlcNAc(b1-4)Gal(b1-4)GlcNAc
Method in brief: as §1

[14] = molecular target: GlcNAc(b1-4)GlcNAc
Method in brief: as §1

[15] = molecular target: GlcNAc(b1-4)GlcNAc(b1-4)GlcNAc
Method in brief: as §1

[16] = molecular target: GlcNAc(b1-4)GlcNAc(b1-4)GlcNAc(b1-4)GlcNAc(b1-4)GlcNAc
Method in brief: as §1

[17] = molecular target: GlcNAc(b1-4)GlcNAc(b1-4)GlcNAc(b1-4)GlcNAc(b1-4)GlcNAc(b1-4)GlcNAc
Method in brief: as §1

[18] = molecular target: GlcNAc(b1-4)[GlcNAc(b1-6)]GalNAc
Method in brief: as §1

[19] = molecular target: GlcNAc(b1-6)Gal(b1-4)GlcNAc
Method in brief: as §1

[20] = molecular target: GlcNAc(b1-6)GalNAc
Method in brief: as §1

[21] = molecular target: GlcNAc6S(b1-3)Gal(b1-4)GlcNAc
Method in brief: as §1

[22] = molecular target: Kdn(a2-3)Gal(b1-3)GalNAc
Method in brief: as §1

[23] = molecular target: Kdn(a2-3)Gal(b1-3)GlcNAc
Method in brief: as §1

[24] = molecular target: Kdn(a2-3)Gal(b1-4)Glc
Method in brief: as §1

[25] = molecular target: Kdn(a2-3)Gal(b1-4)GlcNAc
Method in brief: as §1

[26] = molecular target: Kdn(a2-3)Gal(b1-4)[Fuc(a1-3)]GlcNAc
Method in brief: as §1

[27] = molecular target: Kdn(a2-6)Gal(b1-4)GlcNAc
Method in brief: as §1

[28] = molecular target: Man(a1-2)Man(a1-2)Man(a1-3)Man
Method in brief: as §1

[29] = molecular target: Man(a1-2)Man(a1-2)Man(a1-6)[Man(a1-3)]Man
Method in brief: as §1

[30] = molecular target: Man(a1-2)Man(a1-3)Man
Method in brief: as §1

[31] = molecular target: Man(a1-2)Man(a1-3)[Man(a1-2)Man(a1-6)]Man
Method in brief: as §1

[32] = molecular target: Man(a1-2)Man(a1-3)[Man(a1-2)Man(a1-6)]Man(a1-6)[Man(a1-2)Man(a1-2)Man(a1-3)]Man
Method in brief: as §1

[33] = molecular target: Man(a1-2)Man(a1-3)[Man(a1-2)Man(a1-6)]Man(a1-6)[Man(a1-2)Man(a1-2)Man(a1-3)]Man(b1-4)GlcNAc(b1-4)GlcNAc
Method in brief: as §1

[34] = molecular target: Man(a1-2)Man(a1-3)[Man(a1-6)]Man(a1-6)[Man(a1-2)Man(a1-3)]Man(b1-4)GlcNAc(b1-4)GlcNAc
Method in brief: as §1

[35] = molecular target: Man(a1-2)Man(a1-6)[Man(a1-3)]Man(a1-6)[Man(a1-2)Man(a1-2)Man(a1-3)]Man
Method in brief: as §1

[36] = molecular target: Man(a1-2)Man(a1-6)[Man(a1-3)]Man(a1-6)[Man(a1-2)Man(a1-2)Man(a1-3)]Man(b1-4)GlcNAc(b1-4)GlcNAc
Method in brief: as §1

[37] = molecular target: Man(a1-3)[Man(a1-6)]Man
Method in brief: as §1

[38] = molecular target: Man(a1-3)[Man(a1-6)]Man(a1-6)[Man(a1-2)Man(a1-3)]Man(b1-4)GlcNAc(b1-4)GlcNAc
Method in brief: as §1

[39] = molecular target: Man(a1-3)[Man(a1-6)]Man(a1-6)[Man(a1-3)]Man
Method in brief: as §1

[40] = molecular target: Man(a1-3)[Man(a1-6)]Man(a1-6)[Man(a1-3)]Man(b1-4)GlcNAc(b1-4)GlcNAc
Method in brief: as §1

[41] = molecular target: Man(a1-3)[Man(a1-6)]Man(b1-4)GlcNAc(b1-4)GlcNAc
Method in brief: as §1

[42] = molecular target: Man(a1-3)[Man(a1-6)]Man(b1-4)GlcNAc(b1-4)[Fuc(a1-6)]GlcNAc
Method in brief: as §1

[43] = molecular target: Man(a1-6)Man
Method in brief: as §1

[44] = molecular target: Man(b1-4)GlcNAc
Method in brief: as §1

[45] = molecular target: MurNAc(b1-4)GlcNAc
Method in brief: as §1

B1: Clec2 (Mus musculus), Q9JL99 (protein)
chain: MQDEDGYITLNIKPRKQALSSAEPASSWWRVMALVLLISSMGLVVGLVALGIMSVTQQKYLLAEKENLSATLQQLAKKFCQELIRQSEIKTKSTFEHKCSPCATKWRYHGDSCYGFFRRNLTWEESKQYCTEQNATLVKTASQSTLDYIAERITSVRWIGLSRQNSKKDWMWEDSSVLRKNGINLSGNTEENMNCAYLHNGKIHPASCKERHYLICERNAGMTRVDQLL
glycan array binding signal (z-score) [1]: -0.532 | glycan array binding signal (z-score) [2]: -0.757 | glycan array binding signal (z-score) [3]: -0.462 | glycan array binding signal (z-score) [4]: -0.342 | glycan array binding signal (z-score) [5]: -0.441 | glycan array binding signal (z-score) [6]: -0.667 | glycan array binding signal (z-score) [7]: -0.898 | glycan array binding signal (z-score) [8]: -0.315 | glycan array binding signal (z-score) [9]: -0.457 | glycan array binding signal (z-score) [10]: -0.395 | glycan array binding signal (z-score) [11]: 0.143 | glycan array binding signal (z-score) [12]: -0.584 | glycan array binding signal (z-score) [13]: 0.033 | glycan array binding signal (z-score) [14]: -0.489 | glycan array binding signal (z-score) [15]: -0.592 | glycan array binding signal (z-score) [16]: -0.45 | glycan array binding signal (z-score) [17]: -0.123 | glycan array binding signal (z-score) [18]: -0.081 | glycan array binding signal (z-score) [19]: -0.639 | glycan array binding signal (z-score) [20]: -0.52 | glycan array binding signal (z-score) [21]: -0.865 | glycan array binding signal (z-score) [22]: -0.377 | glycan array binding signal (z-score) [23]: 0.073 | glycan array binding signal (z-score) [24]: -0.279 | glycan array binding signal (z-score) [25]: -0.478 | glycan array binding signal (z-score) [26]: 0.043 | glycan array binding signal (z-score) [27]: -0.309 | glycan array binding signal (z-score) [28]: 2.06 | glycan array binding signal (z-score) [29]: -0.215 | glycan array binding signal (z-score) [30]: -0.608 | glycan array binding signal (z-score) [31]: -0.471 | glycan array binding signal (z-score) [32]: -0.487 | glycan array binding signal (z-score) [33]: 0.425 | glycan array binding signal (z-score) [34]: -1.03 | glycan array binding signal (z-score) [35]: -0.755 | glycan array binding signal (z-score) [36]: -0.729 | glycan array binding signal (z-score) [37]: -0.605 | glycan array binding signal (z-score) [38]: -0.015 | glycan array binding signal (z-score) [39]: -0.481 | glycan array binding signal (z-score) [40]: -0.53 | glycan array binding signal (z-score) [41]: 0.205 | glycan array binding signal (z-score) [42]: -0.509 | glycan array binding signal (z-score) [43]: 0.911 | glycan array binding signal (z-score) [44]: -0.379 | glycan array binding signal (z-score) [45]: -0.412
